Results on 60 compounds are retold here after the supplement of paper PMC9446081.

Hit rate of the full screen: of about 39,000 compounds, about 220 (0.56%) showed activity. The list shows a part of the results.
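Note: static incubation at 37 °C against the wild-type strain, values averaged over two biological replicates.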

This assay deals with Escherichia coli K-12 BW25113. The assay is described as follows: relative growth (OD600 normalised to plate interquartile mean) (fraction); higher = less growth inhibition, active = 0.2 or less. The conditions noted are these: 50 µM; LB; incubation time: overnight (16-24 h).
For the compound `CN(C)CC#Cc1ccc([C@H]2[C@H](CO)N3C(=O)CN(C(=O)CN(C)C)C[C@@H]23)cc1`, the relative growth was inactive: 1.02. To `COc1ccc(CCC(=O)c2c(O)cc(O[C@@H]3O[C@H](CO)[C@@H](O)[C@H](O)[C@H]3O[C@@H]3O[C@@H](C)[C@H](O)[C@@H](O)[C@H]3O)cc2O)cc1O` belongs inactive: 1; to `C[C@@H]1CN([C@H](C)CO)C(=O)c2cc(NC(=O)Cc3cn(C)c4ccccc34)ccc2O[C@@H]1CN(C)Cc1ccc(Cl)c(Cl)c1`, inactive: 1. To `C[C@@H]1CN([C@H](C)CO)C(=O)c2cc(NC(=O)CCN3CCOCC3)ccc2O[C@@H]1CN(C)S(=O)(=O)c1ccc(Cl)cc1` belongs inactive: 1; to `CCOC(=O)c1n[nH]c(=S)[nH]c1=O`, inactive: 1; to `CC=Cc1ccc2n(c1=O)C[C@@H]1[C@@H](CO)[C@H](C(=O)NCCCN3CCOCC3)[C@H]2N1Cc1cocn1`, inactive: 1.01.

In the case of `Cc1ccc(S(=O)(=O)Nc2ccc3c(c2)C(=O)N([C@@H](C)CO)C[C@@H](C)[C@@H](CN(C)S(=O)(=O)c2ccc(F)cc2)O3)cc1`, the relative growth was inactive: 1.01. As to `Cc1cc(O)c2c(c1)C(=O)c1cc(O)cc(O)c1C2=O`, the relative growth is inactive: 0.923.

With `C[C@@H]1CN([C@H](C)CO)C(=O)Cc2cc(NS(=O)(=O)c3ccccc3)ccc2O[C@@H]1CN(C)S(=O)(=O)c1cccs1`, the relative growth was inactive: 1.01. To `COc1ccc(S(=O)(=O)N(C)C[C@H]2Oc3ccc(NC(=O)NC(C)C)cc3CC(=O)N([C@@H](C)CO)C[C@H]2C)cc1` belongs inactive: 1. To `C[C@H](CO)N1C[C@H](C)[C@H](CN(C)S(C)(=O)=O)Oc2ccc(NC(=O)CCCCCC(=O)Nc3ccccc3N)cc2CC1=O` belongs inactive: 0.981; to `Cn1cc(N2C[C@]3(CCN(CCO)C3)CC2=O)cn1`, inactive: 0.982.

For `CN(C)C(=O)C[C@@H]1CC[C@@H](NC(=O)C2CCOCC2)[C@@H](CO)O1`, the relative growth is inactive: 1.03. To `COc1ccc(NC(=O)N(C)C[C@H]2OCCCC[C@@H](C)Oc3ccc(NC(=O)Nc4ccc(C(F)(F)F)cc4)cc3C(=O)N([C@H](C)CO)C[C@H]2C)cc1` belongs inactive: 1.04; to `COc1ccc(CN(C)C[C@@H]2OCCCC[C@H](C)Oc3ccc(NC(=O)C4CCCCC4)cc3C(=O)N([C@@H](C)CO)C[C@H]2C)cc1`, inactive: 1.01. To `C[C@H]1CN([C@@H](C)CO)C(=O)c2cc(NS(=O)(=O)c3ccc(Cl)cc3)ccc2O[C@@H]1CN(C)S(=O)(=O)c1cn(C)cn1` belongs inactive: 1.01. To `C[C@@H]1CN([C@@H](C)CO)C(=O)Cc2cc(NS(=O)(=O)c3ccc(Cl)cc3)ccc2O[C@H]1CN(C)Cc1ccc(C(F)(F)F)cc1` belongs inactive: 1.03. On to `C[C@H]1CN([C@@H](C)CO)C(=O)c2cc(NS(=O)(=O)c3ccc(Cl)cc3)ccc2O[C@H]1CN(C)Cc1ccc(Cl)c(Cl)c1`, for which the relative growth is inactive: 1.

As to `O=C(C[C@@H]1C[C@@H]2c3cc(NC(=O)C4CCOCC4)ccc3O[C@@H]2[C@H](CO)O1)NCCN1CCCCC1`, the relative growth was inactive: 0.996. To `C[C@H]1CN([C@@H](C)CO)S(=O)(=O)c2ccc(Br)cc2O[C@@H]1CN(C)C(=O)Nc1ccc2c(c1)OCO2` belongs inactive: 0.954.

On to `C[C@H]1CN([C@@H](C)CO)C(=O)c2cccc(NC(=O)c3ccc(-c4nccs4)cc3)c2O[C@@H]1CN(C)C(=O)Nc1ccc2c(c1)OCO2`, for which the relative growth is inactive: 1. To `C[N+](C)(C)CCO.[Cl-]` belongs inactive: 1.06; to `C[C@@H]1CCCCO[C@@H](CN(C)CC2CCCCC2)[C@H](C)CN([C@H](C)CO)C(=O)c2cc(NC(=O)CCC(F)(F)F)ccc2O1`, inactive: 0.995; to `C[C@@H]1CCCCO[C@H](CN(C)Cc2ccc3c(c2)OCO3)[C@@H](C)CN([C@H](C)CO)C(=O)c2cc(NC(=O)Cc3ccccc3)ccc2O1`, inactive: 1.04.

Regarding `C[C@@H]1CN([C@@H](C)CO)C(=O)c2cc(NC(=O)NC3CCCCC3)ccc2O[C@@H](C)CCCCO[C@H]1CN(C)C(=O)c1ccccc1`, the relative growth was inactive: 1.02. To `COc1ccc(S(=O)(=O)N(C)C[C@H]2Oc3ccc(NC(=O)NC(C)C)cc3CC(=O)N([C@H](C)CO)C[C@H]2C)cc1` belongs inactive: 1.01; to `Cc1ccc(S(=O)(=O)Nc2ccc3c(c2)CC(=O)N([C@H](C)CO)C[C@H](C)[C@@H](CN(C)S(=O)(=O)c2ccccc2)O3)cc1`, inactive: 0.979; to `C[C@H](CO)N1C[C@H](C)[C@H](CN(C)S(=O)(=O)c2cn(C)cn2)Oc2ncc(Br)cc2C1=O`, inactive: 0.992. In the case of `C[C@@H]1CN([C@@H](C)CO)C(=O)c2cccc(NC(=O)c3nc4ccccc4s3)c2O[C@@H]1CN(C)Cc1ccc(Cl)c(Cl)c1`, the relative growth is inactive: 1.01. As for `O=C(C[C@@H]1C[C@@H]2c3cc(NC(=O)NC4CCCC4)ccc3O[C@@H]2[C@@H](CO)O1)NCc1ccc(-c2ccccc2)cc1`, the relative growth was inactive: 1.02.

Regarding `Cc1ccc(S(=O)(=O)N2C[C@H](O)COC[C@H]3O[C@@H](CC(=O)NCc4ccc5c(c4)OCO5)CC[C@@H]32)cc1`, the relative growth is inactive: 1. `C[C@@H]1CCCCO[C@@H](CN(C)S(=O)(=O)c2ccc(Cl)cc2)[C@@H](C)CN([C@H](C)CO)C(=O)c2cc(NC(=O)Nc3ccc(F)cc3)ccc2O1`: the relative growth is inactive: 1.02. On to `O=c1[nH]cnc2[nH]ncc12`, for which the relative growth was inactive: 1.12.

For the compound `COc1ccc(CNC(=O)c2cc3c(c(-c4cccc(-c5ccc(C#N)cc5)c4)n2)[C@H](CCO)N([S@@](=O)C(C)(C)C)C3)cc1`, the relative growth is inactive: 0.931. To `CCn1cnc2c(=O)[nH][nH]c(=O)c21` belongs inactive: 1.03; to `COc1cccc(CN2C[C@@H](C)[C@H](OC)CN(C)C(=O)c3ccc(NS(=O)(=O)c4cn(C)cn4)cc3OC[C@H]2C)c1`, inactive: 1; to `CN1C(=O)c2cc(NC(=O)c3ccc(F)c(F)c3)ccc2OC[C@@H]2O[C@@H](CC(=O)N3CCOCC3)CC[C@@H]21`, inactive: 0.984. To `O=C(C[C@@H]1C[C@@H]2c3cc(NS(=O)(=O)c4ccc(F)cc4)ccc3O[C@@H]2[C@@H](CO)O1)NCc1ccccc1` belongs inactive: 1.01; to `CC(C)(C)[S@@](=O)N1Cc2cc(C(=O)NCc3ccccc3F)nc(-c3cccc(-c4cccnc4)c3)c2[C@H]1CCO`, inactive: 0.992; to `COc1ccc(NC(=O)Nc2ccc3c(c2)C(=O)N([C@H](C)CO)C[C@H](C)[C@@H](CN(C)Cc2ccc(-c4ccccc4)cc2)O3)cc1`, inactive: 1.03.

`C[N+](C)(C)CCCCNC(=O)[C@@H]1C[C@@H]2C(=O)NCC(=O)N2[C@@H]1c1ccc(O)cc1`: the relative growth was inactive: 1.02. On to `C[C@@H]1CCCCO[C@@H](CN(C)C(=O)Nc2ccc(F)cc2)[C@H](C)CN([C@@H](C)CO)C(=O)c2cc(NC(=O)Nc3ccc(F)cc3)ccc2O1`, for which the relative growth is inactive: 1.02. To `C[C@@H]1CN([C@H](C)CO)C(=O)c2cccc(NC(=O)c3ccc(-c4nccs4)cc3)c2O[C@@H]1CN(C)C(=O)Nc1ccc(C(F)(F)F)cc1` belongs inactive: 0.975; to `Cc1noc(C)c1NC(=O)N(C)C[C@@H]1Oc2c(NC(=O)Nc3cccc4ccccc34)cccc2C(=O)N([C@H](C)CO)C[C@H]1C`, inactive: 0.997. To `C[C@H](CO)N1C[C@H](C)[C@H](CN(C)S(=O)(=O)c2cn(C)cn2)Oc2ncc(C#Cc3ccccc3)cc2C1=O` belongs inactive: 1.05; to `O=C(Oc1cccc2cccnc12)c1ccccc1`, inactive: 0.894; to `Cc1noc(C)c1S(=O)(=O)N(C)C[C@H]1Oc2ccc(NS(=O)(=O)c3ccccc3)cc2CC(=O)N([C@@H](C)CO)C[C@H]1C`, inactive: 0.98. To `CC(=O)N1[C@H](Cn2cncn2)C[C@H]2CN(C(N)=O)CC[C@H]21` belongs inactive: 0.977; to `C[C@H]1CCCCO[C@@H](CN(C)CC2CC2)[C@@H](C)CN([C@@H](C)CO)C(=O)c2cc(NC(=O)c3ccccc3)ccc2O1`, inactive: 0.981; to `COc1cc2c(cc1O)[C@H](c1ccc(CN3CCCC3)cc1)N(Cc1sc3ccccc3c1Cl)CC2`, inactive: 0.974. For the compound `C[C@H]1CN([C@@H](C)CO)C(=O)c2cc(NC(=O)CCCN(C)C)ccc2O[C@H]1CN(C)S(=O)(=O)c1cn(C)cn1`, the relative growth was inactive: 0.893. To `CCc1cc(=O)oc2c(C)c(O[C@@H]3O[C@H](CO)[C@@H](O)[C@H](O)[C@H]3O)ccc12` belongs inactive: 0.98. To `C[C@H]1CN([C@@H](C)CO)C(=O)c2cccc(NC(=O)C3CCCCC3)c2O[C@H]1CN(C)Cc1ccc(Oc2ccccc2)cc1` belongs inactive: 0.978; to `CO[C@@H]1CN(C)C(=O)c2cc(NC(=O)Nc3cccc(Cl)c3)ccc2OC[C@H](C)N(C(=O)Nc2c(C)noc2C)C[C@@H]1C`, inactive: 1.02; to `Cc1cccc(S(=O)(=O)N2C[C@H](O)COC[C@H]3O[C@@H](CC(=O)NCc4ccncn4)CC[C@@H]32)c1`, inactive: 0.999. For the compound `C[C@H]1CCCCO[C@@H](CN(C)Cc2ccc(Cl)c(Cl)c2)[C@@H](C)CN([C@@H](C)CO)C(=O)c2cc(NC(=O)Nc3ccc(C(F)(F)F)cc3)ccc2O1`, the relative growth was inactive: 1. On to `Cc1noc(C)c1S(=O)(=O)Nc1ccc2c(c1)C(=O)N([C@@H](C)CO)C[C@@H](C)[C@H](CN(C)Cc1ccc(C(F)(F)F)cc1)OCCCC[C@@H](C)O2`, for which the relative growth was inactive: 0.958.

On to `C[C@@H]1CCCCO[C@@H](CN(C)C(=O)Nc2ccc3c(c2)OCO3)[C@H](C)CN([C@H](C)CO)C(=O)c2cc(NC(=O)c3ccccc3)ccc2O1`, for which the relative growth is inactive: 1.01. To `Cc1noc(C)c1NC(=O)Nc1ccc2c(c1)C(=O)N([C@@H](C)CO)C[C@@H](C)[C@H](CN(C)CC1CC1)OCCCC[C@@H](C)O2` belongs inactive: 0.816; to `C[C@H](CO)N1C[C@H](C)[C@H](CN(C)S(=O)(=O)c2ccccc2)Oc2ncc(-c3ccccc3)cc2C1=O`, inactive: 0.997.
